Reference: PMC4336329 (PLoS ONE, 2015)
In all, about 310,000 compounds went through this assay and about 2,200 (0.71%) showed an effect of 50% or more. Effects have a minus sign here. The list shows a part of the results.

biological target: human ether-à-go-go-related gene (hERG) potassium channel (human, UniProt Q12809); assay: primary screen, population patch clamp on CHO cells stably expressing hERG
Sequence (Q12809 whole entry, looked up): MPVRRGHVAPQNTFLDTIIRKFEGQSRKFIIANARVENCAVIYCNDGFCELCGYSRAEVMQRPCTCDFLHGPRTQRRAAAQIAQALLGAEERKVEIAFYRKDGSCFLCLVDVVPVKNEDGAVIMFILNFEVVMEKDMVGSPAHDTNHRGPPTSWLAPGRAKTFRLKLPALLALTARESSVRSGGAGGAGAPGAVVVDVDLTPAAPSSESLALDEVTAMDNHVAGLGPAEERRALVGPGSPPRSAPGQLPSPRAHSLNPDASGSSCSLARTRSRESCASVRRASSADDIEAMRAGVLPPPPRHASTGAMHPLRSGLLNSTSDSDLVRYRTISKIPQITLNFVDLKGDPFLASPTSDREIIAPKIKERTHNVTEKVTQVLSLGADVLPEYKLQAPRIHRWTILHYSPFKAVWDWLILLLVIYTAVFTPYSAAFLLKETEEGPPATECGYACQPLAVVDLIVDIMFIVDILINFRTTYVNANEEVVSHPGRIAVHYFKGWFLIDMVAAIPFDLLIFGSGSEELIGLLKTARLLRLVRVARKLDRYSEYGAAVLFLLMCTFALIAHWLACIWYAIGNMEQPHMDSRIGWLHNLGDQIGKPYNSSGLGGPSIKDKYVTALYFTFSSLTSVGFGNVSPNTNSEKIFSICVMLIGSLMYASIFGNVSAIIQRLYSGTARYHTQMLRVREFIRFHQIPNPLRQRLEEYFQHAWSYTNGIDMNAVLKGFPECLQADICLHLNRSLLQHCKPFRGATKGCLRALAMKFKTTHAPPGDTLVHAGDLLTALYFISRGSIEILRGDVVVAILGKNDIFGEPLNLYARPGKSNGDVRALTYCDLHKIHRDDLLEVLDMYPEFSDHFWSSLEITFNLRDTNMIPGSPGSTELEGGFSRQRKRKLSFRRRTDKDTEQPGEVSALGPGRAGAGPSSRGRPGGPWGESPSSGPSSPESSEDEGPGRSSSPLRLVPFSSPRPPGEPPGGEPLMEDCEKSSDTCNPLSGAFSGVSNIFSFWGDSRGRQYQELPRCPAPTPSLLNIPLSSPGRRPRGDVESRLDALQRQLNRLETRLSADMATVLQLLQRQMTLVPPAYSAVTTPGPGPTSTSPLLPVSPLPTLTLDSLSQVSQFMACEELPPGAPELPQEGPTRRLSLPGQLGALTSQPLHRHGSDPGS

Row | Compound | hERG current change (%, negative = inhibition) at 1uM
1 | O=c1c2ccccc2ncn1CCCCOc1ccccc1F | 15.2%
2 | O=C(c1ccc2c(c1)OCO2)N1CCN(c2ccccn2)CC1 | 10.1%
3 | O=C(NC1CC1)c1sc2ccccc2c1Cl | 22.4%
4 | CCOc1cc(C)c(Cl)cc1S(=O)(=O)NCc1ccco1 | 8.22%
5 | CCCCCCCNC(=O)C1(CC2CC(c3cccc(Br)c3)=NO2)CCN(C(=O)c2ccccc2)CC1 (stereo not shown) | 0.135%
6 | COCC(=O)n1nc(-c2ccccc2)nc1NCc1ccc(N(C)C)cc1 | 2.05%
7 | COc1ccccc1N1CCN(CCCCOc2c(OC)cccc2OC)CC1.O=C(O)C(=O)O | -38.6%
8 | CCC1Oc2ccc(C)cc2N(CC(=O)NCc2ccccc2OC)C1=O (stereo not shown) | 2.27%
9 | COCCn1cnc2c1c(=O)n(CC#N)c(=O)n2Cc1ccccc1 | 7.24%
10 | Cc1c(O)nc(SCC(=O)Nc2cccc(C(F)(F)F)c2)n(-c2ccccc2)c1=O | 15.4%
11 | O=C(c1cc(COc2ccc3c(c2)CCCC3)on1)N1CCCC1 | 11.6%
12 | CCC1=C(OC(=O)N(CC)CC)N2C(=O)OC(=NCCOC)[C@]2(Cc2ccccc2)[C@H]2C1=CC[C@H]1C(=O)NC(=O)[C@H]12 | 13.4%
13 | O=C(Cc1ccccc1)NCCSCc1ccccc1 | -1.5%
14 | COc1ccc(OC)c(NC(=O)CSc2nc3[nH]c(=O)cc(O)c3s2)c1 | 14.7%
15 | CCOC(=O)N/N=C/c1ccc(N(CC)CC)cc1O | 15.4%
16 | Cc1ccc(S(=O)(=O)/N=C(\c2ccccc2)N(C)S(=O)(=O)c2ccc(C)cc2)cc1 | 15.6%
17 | COc1cc(OC)c(CN2CCCN(C)CC2)cc1Br | 15.1%
18 | O=C(COc1ccccc1)Nc1nnc(-c2ccc(Cl)cc2)o1 | 8.01%
19 | CCCCN(C)CCC(=O)Nc1ccc(OC)cc1OC | 15.1%
20 | Cc1ccc(C(=O)NC2CCCc3ccccc32)cc1[N+](=O)[O-] (stereo not shown) | 9.53%
21 | O=C(Nc1ccc(OC(F)(F)C(F)F)c(NC(=O)c2ccc(F)cc2)c1)c1ccc(F)cc1 | 15.3%
22 | CCOc1ccccc1NC(=O)CN1C(=O)C(=O)N(Cc2ccco2)C1=O | 4.49%
23 | CCCN(C(=O)c1nc2nc(C)cc(C)n2n1)c1c(N)n(Cc2ccccc2)c(=O)[nH]c1=O | 15.7%

Row | Compound | hERG current change (%, negative = inhibition) at 1uM
24 | O=C(c1ccccc1)N1CCC(O)(c2cccnc2)CC1 | 18%
25 | O=C(C1CCN(S(=O)(=O)c2cccs2)CC1)N1CCN(c2ccccc2O)CC1 | 3.49%
26 | COc1ccc(NC(=O)/C=C/c2ccco2)cn1 | 11.1%
27 | O=C(NCc1ccccc1)/C(=C\c1ccccc1)NC(=O)c1ccco1 | 11.9%
28 | O=C(CNC(=O)c1ccc(Cl)cc1)OCC(=O)N1CCCC1 | 16.1%
29 | CN(C(=O)Cc1ccccc1)n1cnnc1 | 17.8%
30 | Cc1ccc(C)c(NC(=S)N2CCCCC2CO)c1 (stereo not shown) | 11%
31 | Cn1c(N)c(C(=O)c2ccc(F)cc2F)c(=O)n(C)c1=O | 7.34%
32 | O=C(NCc1ccco1)C(c1ccco1)N(Cc1cccs1)C(=O)Cn1nnc2ccccc21 (stereo not shown) | 15.8%
33 | COCCNC(=S)N(CCc1c(C)[nH]c2ccc(OC)cc12)Cc1cccnc1 | 4.12%
34 | CCCC(CCC)c1nnc(NC(=O)c2ccco2)s1 | 15%
35 | CC1CC(C(F)(F)F)n2ncnc2N1 (stereo not shown) | -4.81%
36 | COc1ccc(N2C(=O)CC(N(CCc3ccccc3)C(=O)c3ccccc3)C2=O)cc1 (stereo not shown) | 12%
37 | COCCCN(C(=S)Nc1c(C)cc(C)cc1C)C(C)c1ccccn1 (stereo not shown) | 6.24%
38 | CCOC(=O)c1nc2ccccc2s1 | 5.34%
39 | O=C(CSc1nc2cc(Cl)ccc2s1)c1cc2ccccc2o1 | 10.8%
40 | CCOC(=O)C1=C(C)N=c2s/c(=C/c3ccc(OCC(=O)O)c(OC)c3)c(=O)n2C1c1ccc(Cl)cc1 (stereo not shown) | 3.8%
41 | Cc1c(Cc2ccccc2)c(=O)oc2cc(O)cc(O)c12 | 9.42%
42 | COc1ccc(C(C)(C)C)cc1NC(=O)CCCN1C(=O)NC(C)(C)C1=O | 11.6%
43 | Cn1ccc(C(=O)OCC(=O)Nc2cccc3ccccc23)n1 | 32.4%
44 | CCN(CC)CC(=O)NCC1(c2ccccc2)CCCC1 | 8.45%
45 | CSCCC(NS(=O)(=O)c1ccc(Br)cc1)C(=O)OCC(=O)NC1CC1 (stereo not shown) | 11.9%
46 | CCCOC(=O)c1c(NC(=O)C2CCCO2)sc(C(=O)OC)c1C (stereo not shown) | 2.45%

Row | Compound | hERG current change (%, negative = inhibition) at 1uM
47 | CCOc1ccc(NC(=O)C(C)N2C(=O)c3ccccc3S2(=O)=O)cc1 (stereo not shown) | 4.83%
48 | COc1ccc(OC2CCN(C(=O)Nc3ccc(C)cc3)CC2)cc1 | 12.4%
49 | O=[N+]([O-])c1ccc(N=Cc2ccc(Br)c([N+](=O)[O-])c2)cc1 | 8.66%
50 | Cc1ccc2nc(Nc3ccccc3)cc(C)c2c1 | 6.39%
51 | COc1ccccc1-c1nnc(NC(=O)C2=COCCO2)o1 | 19.2%
52 | C=CCOC(=O)C(=O)/C=C/c1ccc2c(c1)Cc1ccccc1-2 | 3.71%
53 | O=C(CSc1ccc(Cl)cc1)c1ccco1 | 11%
54 | CC#CCN1c2ccccc2[C@]23C[C@@H](C(=O)OC)N(C(=O)c4cc(C)oc4C)C2=NC(C(=O)OC)=C(C(=O)OC)[C@H]13 | 2.49%
55 | Cc1cc(C)n(-c2ccc(C(=O)Nc3ccc(S(=O)(=O)N(C)C)cc3)cc2)n1 | 14.8%
56 | Nn1c(SCc2cccc(F)c2)nnc1-c1ccncc1 | 6.55%
57 | COC(=O)c1ccc(CSc2nnc3ccccn23)o1 | 0.835%
58 | Cc1cc(C)c2nc(-n3nc(C)cc3N)cc(C)c2c1 | 18.6%
59 | CCOC(=O)c1sc(=NC(=O)c2ccccc2)n(C)c1C | 10.7%
60 | COc1ccc(OCC(=O)NCCS(=O)(=O)N2CCN(c3ccc(F)cc3)CC2)cc1 | 3.41%
61 | O/N=C(\c1ccccc1)C(O)c1ccccc1 (stereo not shown) | 5.91%
62 | COc1ccc(Cl)cc1N1C(=O)C2CCCN2C1c1ccc(F)cc1 (stereo not shown) | 6.63%
63 | COc1ccc(S(=O)(=O)NCC2CCCN(C(=O)CCSC)C2)cc1 (stereo not shown) | 21.7%
64 | CCn1c2ccccc2c2cc(N)ccc21 | 15.4%
65 | NC(N)=Nc1nc2ccccc2o1 | 9.79%
66 | Br.C/C(CC1CC(COCC(C)C)OC1=O)=N\Nc1nc(-c2ccccc2)cs1 (stereo not shown) | 6.71%
67 | CCC(C)(C)C1CCC2(CC1)NC(=O)N(CC(=O)Nc1nc(-c3ccc(C)cc3)cs1)C2=O (stereo not shown) | 20.4%
68 | Cn1c(-c2ccc([N+](=O)[O-])cc2)nc2ccccc21 | 6.58%
69 | CCN(CC)c1ccc2c(c1)oc(=O)c1c(Cl)cc(=O)oc12 | 10.8%

Row | Compound | hERG current change (%, negative = inhibition) at 1uM
70 | O=c1cc(C(F)F)oc2c1ccc1ccccc12 | 3.09%
71 | CC(=O)N1CCc2c(sc3c2c(=O)n(-c2ccccc2)c(=O)n3Cc2ccccc2Cl)C1 | 10.8%
72 | N#Cc1c2n(c3c(=O)[nH]cnc13)CCCC2 | 12.8%
73 | Cc1nnc(Sc2c(N)n(C)c(=O)[nH]c2=O)s1 | -5.72%
74 | CCOC(=O)C(=Cc1ccc(-n2ccnc2)cc1)C(=O)OCC | -10.8%
75 | CCN1C(=O)[C@H]2[C@@H](c3ccc(-c4ccc(F)cc4)cc3)N[C@@](CC(C)C)(C(=O)OC)[C@H]2C1=O.O=C(O)C(F)(F)F | 13.6%
76 | Cc1ccc2c(c1)c(-c1ccccc1)nc1nnnn12 | 1.18%
77 | CCOC(=O)C(CC(=O)O)NCc1ccco1 (stereo not shown) | 7.71%
78 | CCOC(=O)CNc1nc(-c2ccncc2)nc2ccccc12 | 11.8%
79 | CC(C)c1nnc(NC(=O)CC(C)c2ccccc2)s1 (stereo not shown) | 10.6%
80 | CCCSc1nnc(N)s1 | 14.6%
81 | Cc1ccc(CN(C)CC(=O)Nc2ccc3c(c2)CCC3)cc1 | 12.2%
82 | Cc1ccc(S(=O)(=O)N2CCOCC2)cc1NC(=O)COC(=O)c1ccc2c(c1)OCCO2 | 8.88%
83 | CC(C)NC(=O)c1ccccc1NC(=O)C(C)Oc1ccccc1 (stereo not shown) | 5.95%
84 | COc1ccc(C(=O)NNC(=O)CCc2ccccc2OC)cc1 | 9.71%
85 | Cc1cc(C(=O)C(=O)O)c(C)n1-c1ccc(Cl)cc1 | 4.39%
86 | Cc1ccc(NC2CC(C)NC(=S)N2)cc1 (stereo not shown) | 7.87%
87 | Cn1c(=O)c2c(nc(NCCCN3CCOCC3)n2Cc2ccc(Cl)cc2)n(C)c1=O | -7.87%
88 | CCn1c(COc2cccc(C)c2)nnc1SCC(=O)CC(=O)Nc1ccccc1OC | -4.67%
89 | CCOc1ccc(C(=O)Nc2nnc(S(=O)(=O)Nc3ccccc3C)s2)cc1 | 14.7%
90 | Cc1cc(-c2cc(C(=O)Nc3ccccc3)on2)nc(NC2CCCC2)n1 | 7.78%
91 | COc1cccc(NC(=O)CNC(C)CCC(C)C)c1.Cl (stereo not shown) | 11.6%
